In US7214696B2, “Compositions and methods for stabilizing transthyretin and inhibiting transthyretin misfolding” (The Scripps Research Institute, priority 2002, dated 2007):

Columns and labels:
WT TTR [1] = molecular target: T1, WT TTR (Homo sapiens, UniProt P02766); test: Benzoxazole fibril formation assay (pH 4.4, 72 h, turbidity 400 nm), Example 5; assay type: biochemical; settings: TTR 3.6 μM, test compound 7.2 μM
Procedure: The benzoxazoles were evaluated using a series of analyses of increasing stringency. WT TTR (3.6 μM) was incubated for 30 min (pH 7, 37° C.) with a test compound (7.2 μM). Since at least one molecule of the test compound must bind to each molecule of TTR tetramer to be able to stabilize it, a test compound concentration of 7.2 μM is only twice the minimum effective concentration. The pH was then adjusted to 4.4, the optimal pH for fibrilization. The amount of amyloid formed after 72 h (37° C.) in the presence of the test compound was determined by turbidity at 400 nm and is expressed as % fibril formation (ff), 100% being the amount formed by TTR alone. Of the 28 compounds tested, 11 reduced fibril formation to negligible levels (ff<10%; FIG. 7).

[2] = molecular target: wt transthyretin tetramer (Homo sapiens, UniProt P02766); test: TTR tetramer dissociation in 6 M urea, Example 5; settings: TTR 1.8 μM, inhibitor 3.6 μM
WT TTR [3] = molecular target: T1, WT TTR; settings: pH 4.4, 3.6 or 7.2 μM inhibitor, 3.6 μM TTR
WT TTR [4] = molecular target: T1, WT TTR; test: Isothermal titration calorimetry, dissociation constants, Example 2; assay type: binding; settings: ITC; for Kd: wild type TTR, pH 8.0, 25° C.
Procedure: The dissociation constants characterizing the binding of 18 and 20 to WT TTR were determined by isothermal titration calorimetry using a Microcal instrument (Microcal Inc., Northhampton, Md.). […] The initial injection of 2.5 μL was followed by 50 injections of 5.0 μL each (25° C.). […] The data were fit by a nonlinear least squares approach with four adjustable parameters, namely, K1, ΔH1, K2, ΔH2 using the ITC data analysis module in ORIGIN version 2.9 provided by Microcal.
Isothermal titration calorimetry (ITC) was employed to determine the binding constants of 18 and 20 to TTR at pH 8.0 (25° C.).

TTR [5] = molecular target: T2, TTR (Homo sapiens, UniProt P02766); test: TTR quaternary structure at pH 4.4 by equilibrium and velocity analytical ultracentrifugation, Example 2; assay type: biochemical; settings: pH 4.4, TTR 3.6 μM, inhibitor 3.6 μM or 7.2 μM
Procedure: The TTR quaternary structure in the presence of inhibitors at pH 4.4 was analyzed. The mechanism by which 18 and 20 stabilize TTR was evaluated by incubating the protein (3.6 μM) for 72 h under the conditions of the stagnant fibril formation assay in the presence of either 3.6 μM or 7.2 μM inhibitor. After 72 h, the samples were centrifuged (14,000×g) and the supernatant was removed from any solid that was formed in the assay. […] The acquisition and analysis of data was performed as described previously.
To ensure that the inhibitors are stabilizing the tetrameric form of TTR (3.6 μM), the quaternary structure of TTR was probed with equilibrium and velocity analytical ultracentrifugation studies. The quaternary structure of the protein after 72 h incubation with 18 and 20 (3.6 μM or 7.2 μM) at pH 4.4 was determined.

WT TTR tetramer [6] = molecular target: T3, WT TTR tetramer (Homo sapiens, UniProt P02766); test: TTR tetramer dissociation kinetics by linked monomer unfolding in 6.5 M urea (far-UV CD), Example 2; settings: 3.6 μM TTR, 3.6 or 7.2 μM inhibitor; for effect on TTR tetramer dissociation in 6.5 M urea: 168 h time-course
WT TTR [7] = molecular target: T1, WT TTR; test: Isothermal titration calorimetry of OH-PCB 18 and TTR, Example 4; assay type: binding
Procedure: When substoichiometric (<1:1) amounts of 18 are added to TTR, the predominant species observed in the mass spectrometer are apo-TTR and the TTR•182 complex, consistent with positively cooperative binding. […] Isothermal titration calorimetry studies carried out under physiological conditions reveal that the binding of OH-PCB 18 to WT TTR fits best to a model where the dissociation constants are identical Kds (3.2±1.8 nM). […] Attempts to fit the collected data to models of positively or negatively cooperative binding yielded poor fits.
A 25 μM solution of compound 18 (in 10 mM phosphate pH 7.6, 100 mM KCl, 1 mM EDTA, 8% DMSO) was titrated into a 1.2 μM solution of TTR in an identical buffer using a Microcal MCS Isothermal Titration Calorimeter (Microcal, Northampton, Mass.). An initial injection of 2 μL was followed by 25 injections of 10 μL at 25° C. The thermogram was integrated and a blank was subtracted to yield a binding isotherm that fit best to a model of two identical binding sites using the ITC data analysis package in ORIGIN 5.0 (Microcal).

TTR in whole blood = molecular target: T4, TTR in whole blood (Homo sapiens, UniProt P02766); test: Binding stoichiometry of OH-PCBs in whole blood, Example 4
T4 construct: Whole blood was drawn from healthy volunteers; from tissue; host or cells: human whole blood from healthy volunteers
Excerpt: Up to two PCBs can bind to the two identical thyroid hormone binding sites in a TTR tetramer. […] Several of the hydroxylated PCBs (e.g., 16 and 22) approach a binding stoichiometry of 2.

[8] = molecular target: T5, TTR in human blood plasma (Homo sapiens, UniProt P02766); test: Immunoprecipitation/HPLC binding stoichiometry of PCBs and OH-PCBs in plasma, Example 4; parameters: from tissue; host or cells: human blood plasma from healthy volunteers; settings: OH-PCB 10.8 μM in human blood plasma; post-wash lower limit
WT TTR tetramer [9] = molecular target: T3, WT TTR tetramer; test: WT TTR tetramer dissociation rate in 6 M urea, Example 1; assay type: biochemical; settings: TTR 1.8 μM
Procedure: Tetramer dissociation rates were measured by linking slow quaternary structural changes to the unfolding transition, with a rate of 5×10^5 times that of dissociation (Hammarström et al., Proc. Natl. Acad. Sci. U.S.A. 99, 16427 (2002)). Denaturation-detected dissociation is irreversible because the concentration of urea used (>6.0 M) cannot support refolding.

TTR [10] = molecular target: T2, TTR; settings: read-out: Kd2; cited from earlier work
TTR [11] = molecular target: T2, TTR; test: Wash-associated loss of PCB from immobilized recombinant TTR, Example 4; assay type: binding; parameters: made in house; host or cells: Escherichia coli BL21/DE3 Epicurian gold, pmmHα plasmid; settings: 10.8 μM compound, recombinant TTR 3.6 μM
Procedure: PCBs and OH-PCBs (10.8 μM) were incubated with recombinant TTR (3.6 μM) to evaluate the stoichiometry of small molecule bound to immobilized TTR after each wash step. […] Quantification of wash-associated losses allows one to estimate the true binding stoichiometry of PCBs and OH-PCBs in plasma.
The amount of PCB (or OH-PCB) that washes off of the antibody•TTR•PCB complex during the washing steps was evaluated using recombinant WT TTR.

[12] = molecular target: T5, TTR in human blood plasma; test: Plasma selectivity: antibody capture/HPLC binding stoichiometry, Example 2; settings: 10.8 μM inhibitor in human plasma, 37° C., 24 h; post-wash lower limit; maximum 2 per TTR tetramer
[13] = molecular target: T5, TTR in human blood plasma; assay type: binding; parameters: from tissue; host or cells: human blood plasma from healthy volunteers; settings: test compound 10.8 μM, 24 h, 37° C.
Procedure: Human blood plasma (TTR conc. 3.6–5.4 μM) was incubated for 24 h with the test compound (10.8 μM) at 37° C. The TTR and any bound inhibitor were immunoprecipitated using a sepharose-bound polyclonal TTR antibody. The TTR with or without inhibitor bound was liberated from the resin at high pH, and the inhibitor:TTR stoichiometry was ascertained by HPLC analysis (FIG. 8).

TTR [14] = molecular target: T2, TTR; test: Sedimentation velocity analytical ultracentrifugation, Example 5; assay type: biochemical; settings: TTR 3.6 μM, 72 h, pH 4.4, 37° C.
Procedure: To confirm that 20 inhibits TTR fibril formation by binding strongly to the tetramer, isothermal titration calorimetry (ITC) and sedimentation velocity experiments were conducted with wt TTR. […] For the sedimentation velocity experiments, TTR (3.6 μM) was incubated with 20 (3.6 μM, 7.2 μM, 36 μM) under optimal fibrilization conditions (72 h, pH 4.4, 37° C.).
The quaternary structure of TTR in the presence of 20 was observed using sedimentation velocity analytical ultracentrifugation. The samples were incubated with 20 at 3.6, 7.2 or 36 μM for 72 h. The data were collected on a temperature-controlled Beckman XL-I analytical ultracentrifuge (equipped with an An60Ti rotor and photoelectric scanner). A double sector cell, equipped with a 12 mm Epon centerpiece and sapphire windows, was loaded with 400–420 μL of sample using a syringe. Data were collected at rotor speeds of 3000 and 50000 rpm in continuous mode at 25° C., with a step size of 0.005 cm employing an average of 1 scan per point. Detection was carried out at 280 nm. The data were subjected to time-derivative analysis using the program DCDT+ developed by Philo (Philo, 2000; Stafford, 1992). […] The molecular weight of each species was determined by methods reported previously (Petrassi, et al 2000).

Compound: 4-Hydroxybiphenyl-3-carboxylic acid [Compound 27]
- activity in the fibril formation assay (WT TTR [1]): active in the fibril formation assay
- unfolding after 168 h [2]: 90%

Compound: O=C(O)c1ccc(-c2c(F)cccc2F)cc1 [Compound 20, 2′,6′-Difluorobiphenyl-4-carboxylic acid]
- performance in slowing TTR fibril formation under acidic conditions (WT TTR [3]): perform exceptionally well
- Kd (WT TTR [4]; read-out: Kd2): 1.3 µM
- TTR quaternary structure after 72 h incubation with inhibitor (TTR [5]): The tetramer was the dominant species
- rank among inhibitors of tetramer dissociation in 6.5 M urea (WT TTR tetramer [6]): superior
- effect on TTR tetramer dissociation in 6.5 M urea (WT TTR tetramer [6]): overall reduction in the extent of tetramer dissociation
- time for which tetramer dissociation was prevented [2]: at least 168 h

Compound: Oc1c(Cl)cc(-c2cc(Cl)c(O)c(Cl)c2)cc1Cl [OH-PCB 18]
- Kd (WT TTR [7]; ITC, physiological conditions, 25° C., read-out: Kds (two identical binding sites)): 0.0032 ± 0.0018 µM
- stabilization of the native state of TTR (WT TTR [7]; dictated by the nM Kds): > 3 kcal/mol

Compound: 3′,5′-Difluorobiphenyl-4-ol [Compound 9]
- Equivalents Bound (Blood) (TTR in whole blood): 0.57
- Equivalents Bound (Plasma) [8]: 0.83 ± 0.19
- protection of the tetramer from dissociation in 6 M urea by T·I and T·I2 (WT TTR tetramer [9]): prevented tetramer dissociation in 6 M urea

Compound: O=C(O)Cc1ccccc1Nc1c(Cl)cccc1Cl [diclofenac]
- Kd (TTR [10]): 1.2 µM

Compound: Clc1ccccc1-c1ccccc1Cl [PCB 4]
- decrease of stoichiometry after 5 washes (wash-associated loss) (TTR [11]): 45%

Compound: OCc1cccc(-c2cc(Cl)cc(Cl)c2)c1 [Compound 48, 3′,5′-Dichlorobiphenyl-3-yl-methanol]
- performance in slowing TTR fibril formation under acidic conditions (WT TTR [3]): perform exceptionally well
- Plasma Selectivity (equiv bound) [12]: 0.89 ± 0.09 equiv bound
- rank among inhibitors of tetramer dissociation in 6.5 M urea (WT TTR tetramer [6]): superior
- effect on TTR tetramer dissociation in 6.5 M urea (WT TTR tetramer [6]): overall reduction in the extent of tetramer dissociation

Compound: 2′,6′-Difluorobiphenyl-4-carboxylic acid [Compound 20]
- activity in the fibril formation assay (WT TTR [1]): excellent inhibitory activity
- Equivalents Bound (Blood) (TTR in whole blood): 0.86
- inhibitor:TTR binding stoichiometry in human blood plasma [13]: displayed the highest binding stoichiometries

Compound: O=C(O)c1ccc(-c2cc(F)cc(F)c2)cc1 [Compound 18, 3′,5′-Difluorobiphenyl-4-carboxylic acid]
- binding at the first site relative to the second site (Kd2/Kd1) (WT TTR [4]; negative cooperativity): approximately 120 times
- Kd (WT TTR [4]; read-out: Kd1): 0.009 µM
- Kd (WT TTR [4]; read-out: Kd2): 1.1 µM
- Plasma Selectivity (equiv bound) [12]: 1.27 ± 0.12 equiv bound
- TTR quaternary structure after 72 h incubation with inhibitor (TTR [5]): The tetramer was the dominant species

Compound: Clc1cccc(-c2ccccc2)c1 [PCB 2]
- decrease of stoichiometry after 5 washes (wash-associated loss) (TTR [11]): 10%

Compound: O=C(O)c1ccc2nc(-c3c(Cl)cccc3Cl)oc2c1 [benzoxazole 20, 6-Carboxy-2-(2,6-dichlorophe2nyl)-benzoxazole]
- TTR species in solution (TTR [14]; inhibitor 3.6 μM): the TTR remaining in solution was tetrameric
- TTR species in solution (TTR [14]; inhibitor 7.2 or 36 μM): only detectable species in solution
